Assay results reported in PubChem BioAssay AID1963576 (National Center for Advancing Translational Sciences (NCATS), 2024).
About 60 (0.1%) of roughly 46,000 compounds were called active. Not shown: some 3% with an inconclusive outcome. Calls follow the shape of the dose curve; as a rule, active = well fitted inhibition curve with a large enough effect; inconclusive = small, poorly fitted or top-dose-only effect; inactive = no such curve, though single readings can be large or run the other way. The list shows a part of the results.

Assay: Primary qHTS assay for Inhibitors of ovarian cancer metastasis using an organotypic tumor microenvironment (TME) model. Also: nearly all actives have a fitted effect of over 65% in size.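 As to activity change, negative = inhibition: plate controls were DMSO wells for no effect and tomatine positive control wells for full effect.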
Settings: SKOV3ip1-GFP adhesion/invasion on 3D omental model, fluorescence; series mostly up to 45.8 µM; activity change, negative = inhibition: at the top concentration
Method in brief: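 A 3D layer of primary human omental fibroblasts, mesothelial cells, fibronectin and collagen I, grown 48 hr, received SKOV3ip1-GFP cells in serum-free medium plus compounds at 0.36-46 umol/L. After 2 hr RT and 16 hr 37 C, fixed adherent GFP cells were counted; normalized to DMSO and tomatine.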

Activity change, negative = inhibition, inactive:
Cn1c(C(=O)N2CCC(C(=O)NCCc3ccc(S(N)(=O)=O)cc3)CC2)cc2sccc21 1.23%
CCOC(=O)c1ccc(NC(=O)c2cc3c(n(-c4ccc(C)cc4)c2=O)CC(C)(C)CC3=O)cc1 -3.82%
Cc1ccc(CCNC(=O)c2ccc(CSCc3ccc(C)cc3)o2)cc1 -10.6%
CC12CN3CC(C)(CN(C1)C3c1ccc(OCc3ccccc3)cc1)C2=O (stereo not drawn) -2.03%
CC1=C(c2ccc(Cl)cc2)S(=O)(=O)NC1=NCc1ccc(C)cc1 -5.93%
CN(C)c1cccc(C(=O)Nc2ccc(-c3nc4ccccc4s3)cc2)c1 -1.6%
Cc1ccc(NC(=O)CSc2nnc(C)c(=O)[nH]2)cc1 16.5%
Cc1noc(Cn2c(=O)c3ccccc3n(CC(=O)Nc3ccccc3C(F)(F)F)c2=O)n1 -3.81%
Oc1ccc(Nc2nc(-c3ccc(Cl)cc3)nc3ccccc23)cc1 -15.6%
CCOCCCn1c(=N)c(C(=O)NC2CCCC2)cc2c(=O)n3cccc(C)c3nc21 17.3%
Cc1cccc(-n2ncc3c(Nc4c(C)cc(C)cc4C)ncnc32)c1 -8.43%
CCOC(=O)c1cccc(Nc2cc(C)nc(C)n2)c1 1.35%
CCc1ccc(NC(=O)c2ccc3c(c2)c(C)c(C)n3Cc2ccccc2)cc1 -3.33%
CCCCOc1ccc(C2c3c(oc4ccccc4c3=O)C(=O)N2c2nc(C)c(C(=O)OCC)s2)cc1OC (stereo not drawn) -1.09%
COc1ccccc1CNC(=O)CN1C(=O)CCCc2ccccc21 4.85%
O=C(Nc1ccccc1Br)N1CCN2CCCCC2C1 (stereo not drawn) -1.85%
O=C(CCC1N=C2c3ccccc3N=C(SCc3cccc(F)c3)N2C1=O)NCc1ccc(F)cc1 (stereo not drawn) 4.2%
Cc1ccc(CCNC(=O)CN2CCN(Cc3ccc(Cl)cc3)C2=O)cc1 -0.132%
COc1ccc(S(=O)(=O)NCCc2cn3ccsc3n2)cc1 1.91%
Cc1ccc(S(=O)(=O)Nc2ccc3c(c2)c(C(=O)OC(C)C)c(C)n3S(=O)(=O)c2ccc(C)cc2)cc1 6.29%
CC(=O)c1ccc(NC(=O)c2ccc(CN3C(=O)CCn4nc(C)cc43)cc2)cc1 -3.56%
Cn1nnnc1SCCCNCc1ccccc1OCc1ccccc1F 0.419%
COC(=O)c1ccccc1NC(=O)c1cc(=O)c2ccc(C)c(C)c2o1 -4.72%
COc1ccc(CCNC(=O)Cn2ccc3cc(S(=O)(=O)N4CCCCC4)ccc32)cc1OC 2.14%
CCN(CC)CCNC(=O)Cn1ncc2c3ccccc3n(Cc3ccccc3C)c2c1=O -8.55%
COc1ccc(C(=O)c2cn(Cc3cccc(C)c3)c3cc4c(cc3c2=O)OCCO4)cc1OC 1.95%
CCc1ccc(NC(=O)CN2C(=O)CCSc3ccc(S(=O)(=O)N4CCCC4)cc32)cc1 1.57%
Cc1cccc(-c2[nH]c(C(C)(C)C)nc2-c2ccc3c(c2)OCO3)n1 9.73%
CCOC(=O)c1ccc(NC(=O)C2CCN(S(=O)(=O)Cc3ccccc3)CC2)cc1 1.41%
Cc1cc(Cl)ccc1NC(=O)CS(=O)(=O)c1cccc2nsnc12 -7.53%
CC(=O)c1ccc(NC(=O)C2CCCN(S(=O)(=O)c3ccc(Br)s3)C2)cc1 (stereo not drawn) 0.323%
Cc1cccn2c(=O)c3cc(C(=O)NC(C)(C)C)n(C)c3nc12 -7.21%
CCOC(=O)C1CCN(c2nc3c(S(=O)(=O)c4ccc(CC)cc4)nnn3c3ccc(Cl)cc23)CC1 1.35%
COC(=O)c1sc2cccc(F)c2c1S(=O)(=O)NC(C)c1ccccc1 (stereo not drawn) -2.63%
CCc1ccc(NCc2cc3ccc(OC)cc3n(CC(=O)Nc3ccccc3OC)c2=O)cc1 -25.5%
Cc1cc(C)cc(NC(=O)CSc2oc(-c3cccs3)nc2S(=O)(=O)c2ccc(Br)cc2)c1 -11.2%
Cc1ccn2c(Nc3ccc4c(c3)OCO4)c(-c3ccc(C)o3)nc2c1 -2.66%
Cc1ccc(C(=O)NCCSc2c[nH]c3ccccc23)cc1C -4.02%
CCCN(CCC)C(=O)Cn1c(=O)n(-c2ccc(CC)cc2)c(=O)c2c3c(sc21)CCC3 -6.77%
COc1ccc(-c2c(C)c3ccc(O)c(CN4CCCCC4C)c3oc2=O)cc1OC (stereo not drawn) -7.11%
COc1ccc(NC(=O)C2(S(=O)(=O)c3ccc(C)cc3)CC2)c(OC)c1 0.641%
CCN(C(=O)c1c(O)c2c(Cl)cccc2n(C)c1=O)c1ccccc1 11.3%
O=C(CSc1nccn1Cc1ccc(F)cc1)NC1CCCC1 13.6%
CCCOC(=O)c1ccc(NC(=O)C2CC(=O)N(c3ccc(C)cc3)C2)cc1 (stereo not drawn) 6.55%
Cc1ccc(CN(C(=O)COc2cccc(Cl)c2)c2ccccn2)o1 1.27%
CCOc1ccc(NC(c2ccc(Cl)cc2)c2nnc(-c3cccc(F)c3)o2)cc1 (stereo not drawn) 3.67%
Cc1ccc(C)c(-c2ccc(=O)n(C(C)C(=O)Nc3ccccc3C(F)(F)F)n2)c1 (stereo not drawn) -13.1%
CCc1ccc(-n2nc(C)c3c(C(=O)Nc4ccc(Cl)cc4)cc(C)nc32)cc1 -2.92%
CCC(=O)N1c2ccccc2CC1C(=O)NCCc1ccccc1OC (stereo not drawn) 1.64%

outcome, inactive:
O=C(CSc1nc2c(oc3ccccc32)c(=O)[nH]1)Nc1cccc(Cl)c1
CCOC(=O)c1cccc(NC(=O)CCNS(=O)(=O)c2cccc3nonc23)c1
CCc1ccc(NC(=O)Cn2c(=O)ccc3cc(S(=O)(=O)N4CCCC4)ccc32)cc1
Cc1nnc2c3ccccc3nc(N3CCN(c4cccc(Cl)c4)CC3)n12
CCc1ccc(NC(=O)c2oc3c(c2C)-c2[nH]ncc2CC3)cc1
O=S(=O)(Nc1ccc(Br)cc1)c1ccc2nc(-c3ccccc3)[nH]c2c1
Cc1ccc(N(C(=O)c2cccc(C)c2)S(=O)(=O)c2ccc(Cl)cc2)cc1
Cc1nn2c(=O)cc(COC(=O)c3ccc(F)cc3)nc2s1
CCOc1ccc(NC(=O)c2sc3nc4n(c(=O)c3c2C)CCCC4)cc1
Cc1cccc(NC(=O)c2ccc(F)c(S(=O)(=O)NCc3ccc4c(c3)OCO4)c2)c1
CCOC(=O)C1CCN(C(=O)c2ccc3c(=O)n4nc(Nc5ccccc5)sc4nc3c2)CC1
O=C(Nc1ccccc1F)C(c1ccccc1)N1Cc2ccccc2C1=O (stereo not drawn)
CCSc1ncc(Cl)c(C(=O)Nc2ccc(S(=O)(=O)N3CCCCC3CC)cc2)n1 (stereo not drawn)
CCCCNC(=O)CSc1nc(-c2ccc(OC)cc2)cc(C(F)(F)F)n1
